{
  "source": "PubChem BioAssay AID686978",
  "about": "(National Center for Advancing Translational Sciences (NCATS), 2013)",
  "note": "About 64,000 (15%) of roughly 420,000 compounds were called active. This list was built around the results that the source calls inconclusive (neither active nor inactive); the mix of calls is not that of the screen. The call rests on the fitted dose curve; in most records, active means well fitted inhibition curve with a large enough effect; inconclusive means small, poorly fitted or top-dose-only effect; inactive means flat fitted curve, though single readings scatter. No potency is given beside an inconclusive call; the fits are too rough. On the % scale 0 is the no-effect control and ±100 the full control effect; potency means the concentration at half of the fitted maximal effect; tags describe the fitted curve by direction and shape.",
  "data": [
    {"test": "qHTS for Inhibitors of human tyrosyl-DNA phosphodiesterase 1 (TDP1): qHTS in cells in absence of CPT; further: nearly all actives have a fitted effect of over 55% in size", "conditions": "DT40 Tdp1-/- hTDP1 cells, no CPT, ATP luminescence, 48 h; activity change, negative = growth inhibition: at 46.2 µM (top of the series) unless noted", "how_it_was_run": "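Chicken DT40 Tdp1-/- cells complemented with human TDP1, screened without camptothecin (DMSO vehicle only), 400 cells/well. Compounds pin-transferred, cells incubated at 37 °C for at least 48 hr. Growth read as ATP-dependent luminescence (CellTiter-Glo, 30 min at RT).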", "values": [
      {"smiles": "Cc1ccc(CN2C(=O)C(C)Sc3ccc(C#N)cc32)cc1", "note": "(stereo not drawn)", "Potency": "inconclusive [inhibitor, single point]"},
      {"smiles": "CCOC(=O)N1CCN(C(=O)c2ccc3c(c2)NC(=O)C(N2CCOCC2)S3)CC1", "note": "(stereo not drawn)", "Potency": "inactive"},
      {"smiles": "Cc1cn(-c2ccccc2)c(C)c1/C=N\\Nc1nc(N2CCOCC2)nc(N2CCOCC2)n1", "Potency": "inconclusive [inhibitor, single point]"},
      {"smiles": "O=C(COC(=O)C12CC3CC(CC(C3)C1)C2)NNC(=O)c1ccccc1", "Potency": "inactive"},
      {"smiles": "CCCC(C(=O)Nc1ccc(S(=O)(=O)N2CCCC2)cc1)c1ccccc1", "note": "(stereo not drawn)", "Potency": "inconclusive [inhibitor, single point]"},
      {"smiles": "COc1cc2c(-c3ccc(C)cc3)nc3c(c(C)nn3-c3ccccc3)c2cc1OC", "Potency": "inactive"},
      {"smiles": "COc1ccc(OC)c2c1sc(=NC(=O)C1COc3ccccc3O1)n2C", "note": "(stereo not drawn)", "Potency": "inconclusive [inhibitor, single point]"},
      {"smiles": "Cc1ccc2nc(SCC(=O)NCc3ccccc3)nc(=O)n2c1", "activity change, negative = growth inhibition": "inconclusive: -23.5% [inhibitor]"},
      {"smiles": "Cc1cc(C(=O)Nc2ccc3ccccc3c2)c(C)o1", "Potency": "inconclusive [inhibitor, single point]"},
      {"smiles": "Cc1ccc(NC(=O)CCN2C(=O)NC3(CCCC3)C2=O)c(C)c1", "Potency": "active: 3.26 µM"},
      {"smiles": "COc1cccc(-c2csc3nc[nH]c(=O)c23)c1", "Potency": "inactive"},
      {"smiles": "COc1cccc(C2C(C(=O)Nc3ccccc3)=C(C)Nc3nnnn32)c1OC", "note": "(stereo not drawn)", "Potency": "inconclusive [inhibitor, single point]"},
      {"smiles": "OCC1(Cc2ccccc2)CCN(CCCC2CCCC2)CC1", "Potency": "inconclusive [inhibitor, single point]"},
      {"smiles": "COc1ccc(-c2csc(NC(CO)c3nc4ccccc4n3Cc3ccc(C)cc3)n2)cc1", "note": "(stereo not drawn)", "Potency": "inconclusive [inhibitor, single point]"},
      {"smiles": "COC(=O)c1sccc1NC(=O)CC1C(=O)NCCN1C(=O)Nc1ccc(C(F)(F)F)cc1", "note": "(stereo not drawn)", "Potency": "inconclusive [inhibitor, single point]"},
      {"smiles": "Cn1cnc(S(=O)(=O)N2CCC(C(=O)N3CCN(c4ccc(Cl)cc4)CC3)CC2)c1", "Potency": "inactive"},
      {"smiles": "COC(=O)Cc1ccc(OCc2ccc(Cl)nc2)cc1", "Potency": "inactive"},
      {"smiles": "CC(=O)c1ccc(N2CCN(C3CCC(C(C)(C)C)CC3)CC2)cc1", "note": "(stereo not drawn)", "Potency": "inconclusive [inhibitor, single point]"},
      {"smiles": "CCCCCC(=O)N1CCN(S(=O)(=O)c2ccc3c(c2)OCCO3)CC1", "Potency": "inactive"},
      {"smiles": "CCc1ccc(Sc2cc(C(=O)NCCCOC(C)C)c3ccccc3n2)cc1", "Potency": "inconclusive [inhibitor, single point]"},
      {"smiles": "CCCc1cc(C(=O)N2CCN(S(=O)(=O)c3ccc(OC)c(OC)c3)CC2)cs1", "Potency": "inconclusive [inhibitor, single point]"},
      {"smiles": "O=C(c1cc2c(s1)CCCC2)N1CCN(S(=O)(=O)c2ccccc2)CC1", "Potency": "inconclusive [inhibitor, single point]"},
      {"smiles": "NCCCNc1ccc([N+](=O)[O-])cc1C(F)(F)F", "Potency": "active: 13 µM"},
      {"smiles": "Cc1cc(C)cc(OCC(=O)Nc2ccc(Cl)c(-c3nc4ncccc4o3)c2)c1", "Potency": "inconclusive [inhibitor, full curve, poor fit]"},
      {"smiles": "COc1ccc(NC(=O)CSc2nnc(C(C)C)n2N)cc1", "Potency": "inactive"},
      {"smiles": "CCc1ccc(C(=O)NNC(=O)CCc2nc3ccccc3c(=O)[nH]2)cc1", "Potency": "inactive"},
      {"smiles": "COc1ccc(NC(=O)Cn2c(-c3ccccc3)cc(C(C)=O)c2C)c(OC)c1", "Potency": "inactive"},
      {"smiles": "Cc1ccc(S(=O)(=O)Nc2c(C)ccc3nsnc23)cc1", "Potency": "inconclusive [inhibitor, single point]"},
      {"smiles": "CCOCCn1c(SC)nc2c1c(=O)[nH]c(=O)n2C", "Potency": "inconclusive [inhibitor, single point]"},
      {"smiles": "Cn1c(=O)[nH]c(=O)c2c1nc(N1CCNCC1)n2CCOc1ccccc1", "Potency": "inconclusive [inhibitor, single point]"},
      {"smiles": "CC(C(=O)NC1CCCC1)N(C(=O)c1ccc(-c2ccccc2)[nH]1)c1ccccc1F", "note": "(stereo not drawn)", "Potency": "inconclusive [inhibitor, single point]"},
      {"smiles": "CC(=O)N1CCC(N(CCN2CCOCC2)C(=S)Nc2ccc(C)cc2)CC1", "Potency": "inactive"},
      {"smiles": "CCCCn1c(N)c(Sc2ccc([N+](=O)[O-])cc2)c(=O)[nH]c1=O", "Potency": "inconclusive [inhibitor, partial curve, poor fit]"},
      {"smiles": "N#Cc1c(NC(=O)c2ccc(-c3ccccc3[N+](=O)[O-])o2)sc2c1CCCC2", "Potency": "inconclusive [inhibitor, partial curve]"},
      {"smiles": "CC1Nc2ccccc2C(=O)N1NC(=O)c1ccc(Br)cc1", "note": "(stereo not drawn)", "Potency": "inactive"},
      {"smiles": "CCOC(=O)N1CCN(C(=O)C(NC(=O)c2ccc(CC)cc2)C(C)C)CC1", "note": "(stereo not drawn)", "Potency": "active: 5.8 µM"},
      {"smiles": "CCCn1c(=O)c2sccc2n2c(CCCC(=O)N3CCN(c4cccc(C)c4C)CC3)nnc12", "Potency": "active: 18.4 µM"},
      {"smiles": "COc1ccc(NC2=Nc3cccc4cccc2c34)cc1", "Potency": "active: 25.9 µM"},
      {"smiles": "Cc1cc(N2CCN(C)CC2)nc2ccc(NC(=S)NCCN3CCc4ccccc4C3)cc12", "Potency": "inconclusive [inhibitor, single point]"},
      {"smiles": "COc1ccc(S(=O)(=O)Nc2ccc(-c3ccc4nncn4n3)cc2)c(OC)c1", "Potency": "active: 10.3 µM"},
      {"smiles": "Cc1ccc(S(=O)(=O)NCC2CCC(C(=O)N3CCOCC3)CC2)cc1", "note": "(stereo not drawn)", "activity change, negative = growth inhibition": "inconclusive: -31.1% [inhibitor]"},
      {"smiles": "O=C(Nc1ccccc1)C1=C[C@@H](c2coc3ccccc3c2=O)C[C@@H](OCCCCO)O1", "Potency": "active: 9.2 µM"},
      {"smiles": "CCOC(=O)C(=O)Nc1ncc(Cl)s1", "Potency": "inactive"},
      {"smiles": "N#CCCSc1ncnc2c1oc1ccccc12", "Potency": "inactive"},
      {"smiles": "CCN(CC)c1ccc(N2C(=NC(=O)C3CCCO3)SC3CS(=O)(=O)CC32)cc1", "note": "(stereo not drawn)", "Potency": "inactive"},
      {"smiles": "Cc1cc(C)cc(-n2ccnc2SCC(=O)Nc2ccc3c(c2)OCO3)c1", "Potency": "active: 20.6 µM"},
      {"smiles": "COCCn1cc(C(=O)NCc2ccco2)c2c3ccccc3n(C)c2c1=O", "Potency": "inconclusive [inhibitor, single point]"},
      {"smiles": "COC(=O)[C@]12CCCCC=C1N(CCC1=CCCCC1)C(=O)[C@H](CC(=O)NCC13CC4CC(CC(C4)C1)C3)C2", "Potency": "inconclusive [inhibitor, single point]"}
    ]}
  ]
}
